# The other results are listed elsewhere or left out.
# B1: AAL (Agrocybe aegerita), Q6WY08 (protein)
# chain: MQGVNIYNISAGTSVDLAAPVTTGDIVTFFSSALNLNAGAGNPNNTTLNLFAENGAYLLHIAHRLQENVIIFNSRQPDGPWLVEQRVSDVANQFAGIDGKAMVTVFDHGDKYQVVINEKTVIQYTKQISGLTLSLSYNATEETSIFSTVVEAVTYTGLALEHHHHHH
# Experiments:
# Assay in all cases: glycan array binding signal (z-score within array); higher = stronger binding
# Details in all cases: glycan notation: IUPAC condensed, linker removed; mutation: F63H
# [1] = biological target: GalNAc(b1-4)GlcNAc
# Procedure, shortened: (§1)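 Glycan array data were curated from 3228 arrays in the Consortium for Functional Glycomics database and kept only where the protein sequence was available. Glycan names were converted to IUPAC-condensed notation, and columns mapping to the same glycan were averaged. The binding signal is a within-array Z-score, averaged across arrays of the same protein sequence at different concentrations or buffers and across linkers. Negative Z-scores can be read as non-binding.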
# [2] = biological target: GalNAc(b1-4)GlcNAc(b1-2)Man
# Procedure, shortened: as §1
# [3] = biological target: GalNAc(b1-4)GlcNAc(b1-2)Man(a1-3)[GalNAc(b1-4)GlcNAc(b1-2)Man(a1-6)]Man(b1-4)GlcNAc(b1-4)GlcNAc
# Procedure, shortened: as §1
# [4] = biological target: GalNAc(b1-4)GlcNAc(b1-3)GalNAc(b1-4)GlcNAc
# Procedure, shortened: as §1
# [5] = biological target: GalNAc(b1-4)GlcNAc6S
# Procedure, shortened: as §1
# [6] = biological target: GalNAc(b1-6)GalNAc
# Procedure, shortened: as §1
# [7] = biological target: GalNAc3S(b1-4)GlcNAc
# Procedure, shortened: as §1
# [8] = biological target: GalNAc3S(b1-4)GlcNAc3S
# Procedure, shortened: as §1
# [9] = biological target: GalNAc3S(b1-4)[Fuc(a1-3)]GlcNAc
# Procedure, shortened: as §1
# [10] = biological target: GalNAc4S6S(b1-4)GlcNAc
# Procedure, shortened: as §1
# [11] = biological target: GalNAc6S(b1-4)GlcNAc
# Procedure, shortened: as §1
# [12] = biological target: Glc(a1-4)Glc
# Procedure, shortened: as §1
# [13] = biological target: Glc(a1-4)Glc(a1-4)Glc(a1-4)Glc
# Procedure, shortened: as §1
# [14] = biological target: Glc(a1-6)Glc(a1-6)Glc
# Procedure, shortened: as §1
# [15] = biological target: Glc(a1-6)Glc(a1-6)Glc(a1-6)Glc
# Procedure, shortened: as §1
# [16] = biological target: Glc(b1-4)Glc
# Procedure, shortened: as §1
# [17] = biological target: Glc(b1-6)Glc
# Procedure, shortened: as §1
# [18] = biological target: GlcA(b1-3)Gal
# Procedure, shortened: as §1
# [19] = biological target: GlcA(b1-3)GlcNAc
# Procedure, shortened: as §1
# [20] = biological target: GlcA(b1-6)Gal
# Procedure, shortened: as §1
# [21] = biological target: GlcA3S(b1-3)Gal(b1-4)GlcNAc(b1-2)Man
# Procedure, shortened: as §1
# [22] = biological target: GlcA3S(b1-3)Gal(b1-4)GlcNAc(b1-3)Gal(b1-4)Glc
# Procedure, shortened: as §1
# [23] = biological target: GlcNAc(a1-3)Gal(b1-4)GlcNAc
# Procedure, shortened: as §1
# [24] = biological target: GlcNAc(a1-4)Gal(b1-3)GlcNAc
# Procedure, shortened: as §1
# [25] = biological target: GlcNAc(a1-4)Gal(b1-4)GalNAc
# Procedure, shortened: as §1
# [26] = biological target: GlcNAc(a1-4)Gal(b1-4)GlcNAc
# Procedure, shortened: as §1
# [27] = biological target: GlcNAc(a1-4)Gal(b1-4)GlcNAc(b1-3)Gal(b1-4)Glc
# Procedure, shortened: as §1
# [28] = biological target: GlcNAc(a1-4)Gal(b1-4)GlcNAc(b1-3)Gal(b1-4)GlcNAc
# Procedure, shortened: as §1
# [29] = biological target: GlcNAc(a1-4)Gal(b1-4)GlcNAc(b1-3)Gal(b1-4)GlcNAc(b1-3)Gal(b1-4)GlcNAc
# Procedure, shortened: as §1
# [30] = biological target: GlcNAc(a1-4)Gal(b1-4)GlcNAc(b1-3)Gal(b1-4)[Fuc(a1-3)]GlcNAc(b1-3)Gal(b1-4)[Fuc(a1-3)]GlcNAc
# Procedure, shortened: as §1
# [31] = biological target: GlcNAc(a1-6)Gal(b1-4)GlcNAc
# Procedure, shortened: as §1
# [32] = biological target: GlcNAc(b1-2)Gal(b1-3)GalNAc
# Procedure, shortened: as §1
# [33] = biological target: GlcNAc(b1-2)Man(a1-3)[GlcNAc(b1-2)Man(a1-6)]Man(b1-4)GlcNAc(b1-4)GlcNAc
# Procedure, shortened: as §1
# [34] = biological target: GlcNAc(b1-2)Man(a1-3)[GlcNAc(b1-2)Man(a1-6)]Man(b1-4)GlcNAc(b1-4)[Fuc(a1-6)]GlcNAc
# Procedure, shortened: as §1
# [35] = biological target: GlcNAc(b1-2)Man(a1-3)[GlcNAc(b1-4)][GlcNAc(b1-2)Man(a1-6)]Man(b1-4)GlcNAc(b1-4)GlcNAc
# Procedure, shortened: as §1
# [36] = biological target: GlcNAc(b1-2)Man(a1-3)[GlcNAc(b1-4)][GlcNAc(b1-2)Man(a1-6)]Man(b1-4)GlcNAc(b1-4)[Fuc(a1-6)]GlcNAc
# Procedure, shortened: as §1
# [37] = biological target: GlcNAc(b1-2)[GlcNAc(b1-4)]Man(a1-3)[GlcNAc(b1-2)Man(a1-6)]Man(b1-4)GlcNAc(b1-4)GlcNAc
# Procedure, shortened: as §1
# [38] = biological target: GlcNAc(b1-2)[GlcNAc(b1-4)]Man(a1-3)[GlcNAc(b1-4)][GlcNAc(b1-2)Man(a1-6)]Man(b1-4)GlcNAc(b1-4)GlcNAc
# Procedure, shortened: as §1
# [39] = biological target: GlcNAc(b1-2)[GlcNAc(b1-4)]Man(a1-3)[GlcNAc(b1-4)][GlcNAc(b1-2)[GlcNAc(b1-6)]Man(a1-6)]Man(b1-4)GlcNAc(b1-4)GlcNAc
# Procedure, shortened: as §1
# [40] = biological target: GlcNAc(b1-2)[GlcNAc(b1-4)]Man(a1-3)[GlcNAc(b1-4)][GlcNAc(b1-2)[GlcNAc(b1-6)]Man(a1-6)]Man(b1-4)GlcNAc(b1-4)[Fuc(a1-6)]GlcNAc
# Procedure, shortened: as §1
# [41] = biological target: GlcNAc(b1-2)[GlcNAc(b1-6)]Man(a1-6)[GlcNAc(b1-2)Man(a1-3)]Man(b1-4)GlcNAc(b1-4)GlcNAc
# Procedure, shortened: as §1
# [42] = biological target: GlcNAc(b1-2)[GlcNAc(b1-6)]Man(a1-6)[GlcNAc(b1-2)Man(a1-3)]Man(b1-4)GlcNAc(b1-4)[Fuc(a1-6)]GlcNAc
# Procedure, shortened: as §1
# [43] = biological target: GlcNAc(b1-2)[GlcNAc(b1-6)]Man(a1-6)[GlcNAc(b1-4)][GlcNAc(b1-2)Man(a1-3)]Man(b1-4)GlcNAc(b1-4)GlcNAc
# Procedure, shortened: as §1
# [44] = biological target: GlcNAc(b1-3)Fuc
# Procedure, shortened: as §1
# [45] = biological target: GlcNAc(b1-3)Gal
# Procedure, shortened: as §1
binder,measurement,setting,value
B1,glycan array binding signal (z-score),[1],0.406
same,glycan array binding signal (z-score),[2],-0.335
same,glycan array binding signal (z-score),[3],-0.287
same,glycan array binding signal (z-score),[4],-0.049
same,glycan array binding signal (z-score),[5],0.403
same,glycan array binding signal (z-score),[6],-0.338
same,glycan array binding signal (z-score),[7],0.412
same,glycan array binding signal (z-score),[8],0.59
same,glycan array binding signal (z-score),[9],-0.332
same,glycan array binding signal (z-score),[10],0.108
same,glycan array binding signal (z-score),[11],-0.052
same,glycan array binding signal (z-score),[12],-0.457
same,glycan array binding signal (z-score),[13],0.261
same,glycan array binding signal (z-score),[14],-0.347
same,glycan array binding signal (z-score),[15],-0.408
same,glycan array binding signal (z-score),[16],-0.554
same,glycan array binding signal (z-score),[17],-0.408
same,glycan array binding signal (z-score),[18],-0.33
same,glycan array binding signal (z-score),[19],-0.101
same,glycan array binding signal (z-score),[20],0.43
same,glycan array binding signal (z-score),[21],14.9
same,glycan array binding signal (z-score),[22],12.7
same,glycan array binding signal (z-score),[23],-0.255
same,glycan array binding signal (z-score),[24],-0.008
same,glycan array binding signal (z-score),[25],-0.141
same,glycan array binding signal (z-score),[26],-0.262
same,glycan array binding signal (z-score),[27],-0.403
same,glycan array binding signal (z-score),[28],-0.067
same,glycan array binding signal (z-score),[29],-0.106
same,glycan array binding signal (z-score),[30],0.227
same,glycan array binding signal (z-score),[31],-0.099
same,glycan array binding signal (z-score),[32],-0.256
same,glycan array binding signal (z-score),[33],0.012
same,glycan array binding signal (z-score),[34],-0.272
same,glycan array binding signal (z-score),[35],-0.176
same,glycan array binding signal (z-score),[36],-0.109
same,glycan array binding signal (z-score),[37],0.192
same,glycan array binding signal (z-score),[38],0.362
same,glycan array binding signal (z-score),[39],-0.091
same,glycan array binding signal (z-score),[40],0.194
same,glycan array binding signal (z-score),[41],0.144
same,glycan array binding signal (z-score),[42],0.15
same,glycan array binding signal (z-score),[43],-0.394
same,glycan array binding signal (z-score),[44],0.225
same,glycan array binding signal (z-score),[45],0.181

# From the supplement of paper PMC8728848
